# In publication PMC12136788:
# This is one part of the list.
# T1: UNK ZnF1-3 (human, UniProt Q9C0B0 31-174)
# T1 sequence: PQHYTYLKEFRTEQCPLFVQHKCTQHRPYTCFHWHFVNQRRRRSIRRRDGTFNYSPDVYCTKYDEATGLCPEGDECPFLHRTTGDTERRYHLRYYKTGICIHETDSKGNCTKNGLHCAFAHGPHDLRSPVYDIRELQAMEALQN
# B1: chr2:135883765:135883766:+_ENSG00000115839_ENST00000442034|hu_mus|FALSE|FALSE (ssRNA)
# RNA: GGGAGUUCUACAGUCCGACGAUCAGAAUAAACAUCAUUAUCUACAAUGAUCCCUUCUGUCAAAUGAGGCCACGUUGUUGCUAAAUGGAGUUCACUGAUAGGAUCUUCACAGGCACCAAAUGGCAACUUGCCGAACUCCAGGCCCAACAGAGGAUUGAGCAUCA
# B2: chr3:150289777:150289778:+_ENSG00000144895_ENST00000460851|hu_hu|motif|central (ssRNA)
# RNA: GGGAGUUCUACAGUCCGACGAUCUUUGGCAGGCAUAAAACCAUAUACAGCACAAAACUCAGUAGAACUAGAAUUCCAAACGGCAUCAUAAAUGGGGCCAUUUUUUGGUAAUUGCACUACAGCACUUUCUCCAUUUGUUGCAAUCAACAGAGGAUUGAGCAUCA
# B3: chr2:148701057:148701058:-_ENSG00000115947_ENST00000542387|hu_hu|motif|central (ssRNA)
# RNA: GGGAGUUCUACAGUCCGACGAUCUGACCGCAGGUUUUUGCUGAUAUUGAAAUGCUUCUGUAGUACUUCUUGCACACUUCGGUCUUCUGAGAGAUACUGAACAUUUUCAUUCCACUUCUCAGCAAAAACCUUGUCUGGAAACUCCAACAGAGGAUUGAGCAUCA
# B4: chr5:54662584:54662585:+_ENSG00000039123_ENST00000230640|hu_hu|FALSE|FALSE (ssRNA)
# RNA: GGGAGUUCUACAGUCCGACGAUCAAUUUCUUCUACACGUAGUAAGUUCAAAACCAUGUUGUAGGUCAAAUGGAAAGCACUAUUUAGAGGAUCAGCGGAGCCCUUAAGUAAUUGUUUUCCAAUUGUUGGGCUCAUCUUUUCAUCCAACAGAGGAUUGAGCAUCA
# B5: chr1:186721242:186721243:-_ENSMUSG00000026620_ENSMUST00000027929|mus_hu|FALSE|FALSE (ssRNA)
# RNA: GGGAGUUCUACAGUCCGACGAUCAAAAUAACAAGUAUUAAAAUGUACCUUUACUAGUGGUUUUACAUCGCAUAUAUCACUAAUUAUGAAAGAAAAGUAGGCAAAUGCCCAAUCACAAAGCGGCACAUUAUAGGCAUAAUGAUGCAACAGAGGAUUGAGCAUCA
# B6: 90705518_90705638_1207_3pUTR_ENSMUSG00000027282_ENSMUST00000136872|mouse|control|control (ssRNA)
# RNA: GGGAGUUCUACAGUCCGACGAUCAUGUCUCACUUCAAAUAACUAAUGGGGAACCCCAGUGGUAAAAGAUGUUGUGCUAGGACAAAGAACAAAAAAGGCAGACACCAAUCACCUCCAUUUUCCCAAGAUUAAAUGAUUAUUAAACAACAGAGGAUUGAGCAUCA
# B7: chr9:108415247:108415248:+_ENSMUSG00000032604_ENSMUST00000006838|mus_hu|FALSE|FALSE (ssRNA)
# RNA: GGGAGUUCUACAGUCCGACGAUCAUUGCCUCAAAGAGCAGCAGUGACUCCUCCAUGGGACGGUCUCUCCAGGGUGAAGGCAGAGUAUUAUGGCCUUUGAGCUCCUCUCCUCGCUGGUGGCACACAUAAGCCAGACCCCUGCGGCAACAGAGGAUUGAGCAUCA
# B8: chr6:38652254:38652255:-_ENSG00000124767_ENST00000373365|hu_hu|hu_hu_hu_mus_False|28_48 (ssRNA)
# RNA: GGGAGUUCUACAGUCCGACGAUCCGAGAACUUCAUAGCAGGGAAGUCAAGCUUCUGCAGGAGGGUCAGUCCAAGAACCCUCGUAUAAAAAUCCAGUGACUUCUUAGGAUCCUUCACUCUUAGCAUCGUUUGCUGCAGUAGAAACAACAGAGGAUUGAGCAUCA
# B9: chrX:71549400:71549401:+_ENSMUSG00000019087_ENSMUST00000019231|mus_hu|mus_mus_mus_hu_False|28_88 (ssRNA)
# RNA: GGGAGUUCUACAGUCCGACGAUCGCAGUAGGAAGAGGGAAGCUCUUCAUCCACUGUCGCUGCAGGGUGGGAAAGCAACAACACGGACACCGUCCCACCCUCAACCCUCUCAGGUGUACAGGGUCACACAAUCUGGGUCAAAGACAACAGAGGAUUGAGCAUCA
# B10: chr10:24872911:24872912:-_ENSG00000107863_ENST00000396432|hu_mus|FALSE|FALSE (ssRNA)
# RNA: GGGAGUUCUACAGUCCGACGAUCCUGGUAAAUGGAAGGAAACUUGUUACUGAUAAAAUGCAUUCAUUUAUUCAAUUUUCUAAUUUUAACAAUAUGGCACCCUAAAAAUCAAAUGUACUUUUAUCAUGAGGCACUUUUGUUAGUCAACAGAGGAUUGAGCAUCA
# B11: chr8:113366719:113366720:-_ENSMUSG00000033732_ENSMUST00000042012|mus_mus|motif|central (ssRNA)
# RNA: GGGAGUUCUACAGUCCGACGAUCCAUAUUCUUUGAUGGCUGGUAUUCCAAGAUAACAAUCCGGCCUGAGUCACUGCCAACGGCAAUGUAGUCUUUGGUGCCACCUGUUAGCCUAAACGCCAUAAGUGACCGGAUAACACCAAACAACAGAGGAUUGAGCAUCA
# B12: chr1:66486420:66486421:+_ENSMUSG00000015222_ENSMUST00000077355|mus_mus|motif|central (ssRNA)
# RNA: GGGAGUUCUACAGUCCGACGAUCUUAAAAUUUAUUUUUAAAUAGGGAGAGAACCCUGCUAACAUCUACUUUCACAUACCGGAAAUUGCAACACCAAAGGGUGCAGGAGACACAGAUACUGUGAAUAAAGAAGUAUCAUAUUCACAACAGAGGAUUGAGCAUCA
# B13: chr3:148802587:148802588:-_ENSG00000071794_ENST00000310053|hu_mus|hu_hu_hu_mus_False|78_98 (ssRNA)
# RNA: GGGAGUUCUACAGUCCGACGAUCUCCAACAACUUGUCCUCUCAAACUUCCAAAUAAAACGGAAUCUUGCUCUUCAUCACUCGUUAGGAAGUCAUCUGGAGGAAUAAUGUCUUGGAAUUCAAAAUGUGGCAAGAAAGUUGAGUACAACAGAGGAUUGAGCAUCA
# B14: chr3:105487335:105487336:-_ENSMUSG00000027905_ENSMUST00000090680|mus_hu|FALSE|FALSE (ssRNA)
# RNA: GGGAGUUCUACAGUCCGACGAUCAACAGAAUGUAUCUGUACAGCAAUUUCUCUUGUAGGAGCCAAGAUCAAAAUCUGGGUACUUAAGUUUUCAAGAACAAGAGAGUCCAAAGCUAUGGUGGAGAACACACAGGUUUUCCCGGUCAACAGAGGAUUGAGCAUCA
# Molecular target: T1, UNK ZnF1-3
# Experiment: nsRBNS (natural sequence RNA bind-n-seq); RBNS binding buffer (assumed for nsRBNS): 25 mM Tris pH 7.5, 150 mM KCl, 3 mM MgCl2, 0.01% Triton X-100, 500 ug/ml BSA, 20 U/ml SUPERase-In, 4 C; UNK is unkempt and MSI1 is Musashi-1; names of the RNAs are library labels; protein concentration not given here; high values mean tight binding
row,Binder,binding signal
1,B1,1.48 enrichment R
2,B2,0.964 enrichment R
3,B3,0.237 enrichment R
4,B4,0.658 enrichment R
5,B5,0.91 enrichment R
6,B6,1.91 enrichment R
7,B7,0.734 enrichment R
8,B8,0.646 enrichment R
9,B9,0.481 enrichment R
10,B10,1.06 enrichment R
11,B11,0.607 enrichment R
12,B12,2.29 enrichment R
13,B13,0.912 enrichment R
14,B14,0.787 enrichment R
